From PubChem BioAssay AID651820 (National Center for Advancing Translational Sciences (NCATS), 2012)
Out of some 340,000 compounds screened, about 12,000 (3.5%) were called active. Inconclusive results, whose numbers are uncertain, are shown with a selection of clear calls. Calls follow the shape of the dose curve; as a rule, active = well fitted inhibition curve with a large enough effect; inconclusive = small, poorly fitted or top-dose-only effect, or another doubt; inactive = no such curve, though single readings can be large or run the other way. No potency is given beside an inconclusive call; the fits are too rough.
Potency is read from the fitted curve at half-maximal effect; tags tell the direction and shape of the fitted curve.

Assay: qHTS Assay for Inhibitors of Hepatitis C Virus (HCV)
Conditions: Huh7.5.1 HCVcc-Cre (HCVcc is cell-culture hepatitis C virus) infection, luciferase reporter, 44 h; series mostly up to 41.8 µM
In short: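 HCVcc-Cre virus at an moi near 0.5 was added right after compound to cells cultured 4 h from seeding (1,000 cells/well). Luciferase activity was determined 44 h later, 15 min after substrate addition at RT.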
With `COc1ccccc1-c1c(C#N)c(N)nc2c1CCc1ccccc1-2` the Potency was inconclusive [inhibitor, partial curve].
In the case of `COc1ccc(OC)c(S(=O)(=O)Nc2ccc3oc(C)c(C(C)=O)c3c2)c1`, the Potency was “inactive”.
For `CCC(=O)Nc1ccc(S(=O)(=O)N2CCc3ccccc32)cc1`, the Potency was “inactive”.
With `Cc1ccc(NC(=O)CCNC(=O)c2ccc(Br)cc2)cc1S(=O)(=O)N1CCOCC1` the Potency was inconclusive [inhibitor, single point].
For `OCCN(CCO)c1ccc(C(c2ccc(Cl)cc2)c2ccc(N(CCO)CCO)cc2Cl)c(Cl)c1`, the Potency was inconclusive [inhibitor, partial curve].
With `O=C(N/N=C/c1cc(Br)cc(Br)c1O)c1ccncc1` the Potency was inconclusive [inhibitor, partial curve].
For `O=C(Cn1c(=O)cnc2ccccc21)Nc1cccc(S(=O)(=O)N2CCCCC2)c1`, the Potency was inconclusive [inhibitor, single point].
For `CCOc1nc(Nc2ccc(OC)cc2OC)nc(OCC)n1`, the Potency was “inactive”.
With `O=C(COC(=O)c1cc(Cl)ccc1O)NCC1CCCO1` (stereo not drawn) the Potency was “inactive”.
With `COc1ccc(-c2nnc(SCC(=O)/C(C#N)=C(\C)N)o2)cc1` the Potency was inconclusive [inhibitor, partial curve].
For `CCc1ccccc1NC(=O)/C(=C/c1ccco1)c1ccccc1`, the Potency was inconclusive [inhibitor, single point].
In the case of `CCn1cc(C2=NOC(C(=O)Nc3c(C)nn(Cc4ccc(F)cc4)c3C)C2)c(C)n1` (stereo not drawn), the Potency was inconclusive [inhibitor, partial curve].
With `COc1ccc(Cl)cc1NC(=O)CNC(c1ccccc1)c1ccccc1` the Potency was inconclusive [inhibitor, single point].
In the case of `COc1ccc(-c2nc(NC(=O)c3c(C)noc3C)sc2C)cc1`, the Potency was inconclusive [inhibitor, partial curve].
For `COc1cc(C)ccc1OCCCCOc1ccccc1C(C)=O`, the Potency was inconclusive [inhibitor, single point].
For `Cc1ccc(-c2cc(C(=O)N/N=C/c3ccc([N+](=O)[O-])o3)c3ccccc3n2)o1`, the Potency was active: 11.2 µM.
With `Nc1c(-c2cccs2)cnc2c(-c3ccc(F)cc3)cnn12` the Potency was inconclusive [inhibitor, single point].
With `COc1ccc(C2c3ccc4ccccc4c3Oc3ncn(CCN4CCOCC4)c(=N)c32)cc1` (stereo not drawn) the Potency was inconclusive [inhibitor, single point].
For `CCC(C)(C)C(=O)O[C@H]1C[C@@H](C)C=C2C=C[C@H](C)[C@H](CC[C@@H]3C[C@@H](O)CC(=O)O3)[C@H]21`, the Potency was inconclusive [inhibitor, partial curve, poor fit].
In the case of `COc1ccc(C2c3ccc4ccccc4c3Oc3ncn(CCCO)c(=N)c32)cc1OC` (stereo not drawn), the Potency was active: 12.6 µM.
In the case of `COc1ccc(CCNC(=O)COc2cccc3c2OC(C)(C)C3)cc1OC`, the Potency was inconclusive [inhibitor, full curve, poor fit].
In the case of `CCCC(O)(c1ccc(Cl)cc1)C(CN1CCOCC1)c1ccccc1` (stereo not drawn), the Potency was inconclusive [inhibitor, single point].
In the case of `O=S(=O)(c1ccccc1)N1N=C(c2ccc(O)cc2)CC1c1ccco1` (stereo not drawn), the Potency was active: 10 µM.
For `c1ccc(CNc2nc(N3CCOCC3)nc(N3CCOCC3)n2)cc1`, the Potency was inconclusive [inhibitor, single point].
For `COc1ccc(CNC(=O)CCCC(=O)Nc2cccc(Br)c2)cc1`, the Potency was “inactive”.
With `CNC(=S)N/N=C/c1ccc(-c2ccc(C(=O)O)cc2)o1` the Potency was “inactive”.
For `COc1ccc(C(=O)Nc2cccc([N+](=O)[O-])c2)cc1Br`, the Potency was inconclusive [inhibitor, single point].
For `O=C(Nc1ccc2c(c1)oc1ccccc12)c1cccnc1`, the Potency was inconclusive [inhibitor, partial curve, poor fit].
With `COCCN(C(=O)Cn1nnc2ccccc21)C(C(=O)NC1CCCCC1)c1ccc(OC)cc1OC` (stereo not drawn) the Potency was “inactive”.
For `Cc1csc(SCC(=O)Nc2nccs2)n1`, the Potency was inconclusive [inhibitor, single point].
With `Cc1ccccc1/C=C\c1nc2ccccc2c(=O)n1Cc1ccccc1` the Potency was “inactive”.
With `Cc1ccc(C)c(C2=NNC(=O)CC2)c1` the Potency was “inactive”.
In the case of `O=C(Nc1ccc2c(c1)CCC2)c1cnc(Cl)c(Cl)c1`, the Potency was inconclusive [inhibitor, full curve, poor fit].
For `CCn1cnnc1SCC(=O)c1c(N)n(C2CC2)c(=O)[nH]c1=O`, the Potency was “inactive”.
In the case of `O=C(N/N=C/C(Br)=C/c1ccccc1)c1n[nH]c2c1CCC2`, the Potency was inconclusive [inhibitor, full curve].
With `COCC(=O)N(Cc1ccccc1)c1ccccn1` the Potency was inconclusive [inhibitor, single point].
With `CC(Sc1nnc(Nc2ccccc2)s1)C(=O)NC1CCCc2ccccc21` (stereo not drawn) the Potency was inconclusive [inhibitor, single point].
For `N#Cc1nc(COc2ccccc2Cl)oc1NCc1cccnc1`, the Potency was “inactive”.
With `COC(=O)c1ccc2nc(NC(=O)CCS(=O)(=O)c3ccccc3)sc2c1` the Potency was “inactive”.
With `COC(=O)[C@H](Cc1ccccc1)NC(=O)C1CCN(C(=O)[C@H](C)NS(=O)(=O)c2ccc(C)cc2)CC1` the Potency was “inactive”.
For `O=C(/C=C\c1ccccc1OC(=O)c1ccccc1F)c1cc2ccccc2o1`, the Potency was inconclusive [inhibitor, single point].
With `C/C=C/c1ccc(OCCCN2C(=O)NC(C)(C)C2=O)c(OC)c1` the Potency was inconclusive [inhibitor, partial curve].
For `COc1ccc(C)cc1NS(=O)(=O)c1ccc(NC(=O)CN(c2cc([N+](=O)[O-])ccc2C)S(C)(=O)=O)cc1`, the Potency was active: 10 µM.
With `CC1(C)CC(=O)c2cnc(N3CCc4ccccc43)nc2C1` the Potency was “inactive”.
For `Cc1cc(-c2ccccc2)nc(SCC(=O)c2cccc([N+](=O)[O-])c2)n1`, the Potency was active: 12.6 µM.
With `O=C(Nc1ccccc1Cl)C1CCN(Cc2cnn(-c3ccccc3)c2-n2cccc2)CC1` the Potency was inconclusive [inhibitor, partial curve].
For `CC(OC(=O)CC(NC(=O)c1ccccc1Cl)c1ccccc1)C(=O)Nc1cccc(Cl)c1Cl` (stereo not drawn), the Potency was inconclusive [inhibitor, single point].
For `COc1cccc(-c2nnc(NC(=O)c3ccc(Cl)s3)o2)c1`, the Potency was inconclusive [inhibitor, single point].
For `CC(=O)N1CCN(S(=O)(=O)c2cccc(C(=O)Nc3ccc4c(c3)CCC4)c2)CC1`, the Potency was inconclusive [inhibitor, partial curve].
For `COc1cccc(NC(=O)c2nc(S(C)(=O)=O)ncc2Cl)c1`, the Potency was inconclusive [inhibitor, single point].
For `Cc1cc(OCC(=O)NCc2ccccn2)c2c(C)c(Cc3ccccc3)c(=O)oc2c1`, the Potency was inconclusive [inhibitor, full curve, poor fit].
With `COc1ccc2nc(NC(=O)C(NS(=O)(=O)c3cccs3)C(C)C)sc2c1` (stereo not drawn) the Potency was inconclusive [inhibitor, partial curve].
With `COc1ccc(N(CC(=O)NCCSc2ccccn2)S(=O)(=O)c2ccccc2)cc1Cl` the Potency was inconclusive [inhibitor, single point].
For `Cn1c(COc2ccc(Cl)cc2)nnc1SCc1ncc(-c2ccccc2)o1`, the Potency was inconclusive [inhibitor, single point].
With `COc1ccc(C(=O)NNC(=O)CN2CCC(n3nnc4cc(F)ccc43)CC2)cc1` the Potency was “inactive”.
With `O=C(CN1CCN(c2ccc(O)cc2)CC1)Nc1cc(S(=O)(=O)N2CCCC2)ccc1Cl` the Potency was inconclusive [inhibitor, single point].
For `O=C(C1CCCN(S(=O)(=O)c2cccc3nsnc23)C1)N1CCc2ccccc2C1` (stereo not drawn), the Potency was inconclusive [inhibitor, single point].
For `CC1CCC(NC(=O)CCn2ccc3cc(S(=O)(=O)N4CCCC4)ccc32)CC1` (stereo not drawn), the Potency was inconclusive [inhibitor, single point].
For `COc1ccccc1NS(=O)(=O)c1ccc(C)c(C(=O)NCC(c2ccco2)N(C)C)c1` (stereo not drawn), the Potency was inconclusive [inhibitor, single point].
With `COc1cc(C2=NOC(C(=O)N3CCN(c4ccc(F)cc4)CC3)C2)cc(OC)c1OC` (stereo not drawn) the Potency was inconclusive [inhibitor, single point].
With `CCCCn1c(=O)[nH]c2nc3cc(NC(C)=O)ccc3nc2c1=O` the Potency was “inactive”.
In the case of `COc1ccc(NC(=O)Oc2cc(C)ccc2C(C)C)cc1`, the Potency was inconclusive [inhibitor, single point].
In the case of `CCOc1cc(CNCc2cccs2)ccc1OCC(=O)NC(C)(C)C`, the Potency was inconclusive [inhibitor, partial curve].
In the case of `CN(C)CCCN(C(=O)c1ccco1)c1nc2ccc(Br)cc2s1`, the Potency was inconclusive [inhibitor, partial curve].
With `Cc1cccc(-n2c(C)n[nH]c2=S)c1` the Potency was inconclusive [inhibitor, single point].
With `N#Cc1cc2c(nc1SCC(O)CS(=O)(=O)Cc1ccccc1)CCCC2` (stereo not drawn) the Potency was inconclusive [inhibitor, single point].
With `CCN(CC)c1ccc(NC(=O)c2ccc3c(c2)OCO3)c(C)c1` the Potency was active: 11.2 µM.
In the case of `COc1ccccc1NC(CC(=O)c1ccccc1)C(=O)OCC(=O)c1ccc(F)cc1` (stereo not drawn), the Potency was “inactive”.
